# Measured values as given in the supplement of paper PMC4967469.
# Key:
# Assay in all cases: Viability of human cancer cell lines after 72 h of drug (GDSC screen)
# AT-7519 = compound: O=C(NC1CCNCC1)c1n[nH]cc1NC(=O)c1c(Cl)cccc1Cl [AT-7519]; conditions: top dose 10.24 µM; top dose inferred
# Description: (§1)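 Human cancer cell lines in 384-well plates, medium with 10% serum, drug for 72 h over a 256-fold dose range (nine 2-fold or five 4-fold steps up to the top dose). Adherent lines were fixed and stained with the nucleic acid dye Syto60, suspension lines read with resazurin; signal relative to control wells, capped at 0 and 100%. One two-parameter sigmoid per drug and line, fitted in a mixed model over all curves with the slope shared within a line.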
# FH535 = compound: Cc1cc([N+](=O)[O-])ccc1NS(=O)(=O)c1cc(Cl)ccc1Cl [FH535]; conditions: top dose 32 µM; top dose inferred
# Description: as §1
# XMD14-99 = compound: COc1cc(N2CCN(C)CC2)ccc1Nc1nc(N)c(C(=O)c2c(Cl)cccc2Cl)s1 [XMD14-99]; conditions: top dose 10.24 µM; top dose inferred
# Description: as §1
Cell Line,AUC (AT-7519),IC50 (AT-7519) [µM],AUC (FH535),IC50 (FH535) [µM],AUC (XMD14-99),IC50 (XMD14-99) [µM]
"TYK-nu (ovary, adherent)",0.931,> 10.2,0.479,1.74,0.985,> 10.2
"NCI-H2170 (lung squamous cell carcinoma, adherent)",0.892,> 10.2,0.386,0.958,0.982,> 10.2
"CAL-120 (breast, adherent)",0.942,> 10.2,0.684,7.67,0.976,> 10.2
"C3A (liver, adherent)",0.97,> 10.2,0.528,2.4,0.988,> 10.2
"CAL-85-1 (breast, adherent)",0.719,3.24,0.607,4.28,0.962,> 10.2
"NCI-H2030 (lung adenocarcinoma, adherent)",0.537,0.816,0.656,5.78,0.973,> 10.2
"SNU-182 (liver, adherent)",0.449,0.462,0.735,9.72,0.986,> 10.2
"SK-N-AS (neuroblastoma, adherent)",0.663,1.96,0.544,2.69,0.98,> 10.2
"Calu-3 (lung adenocarcinoma, adherent)",0.924,> 10.2,0.561,3.07,0.983,> 10.2
"WM1552C (melanoma, adherent)",0.684,2.1,0.678,6.33,0.977,> 10.2
"8305C (thyroid, adherent)",0.838,10.2,0.582,3.59,0.973,> 10.2
"T47D (breast, adherent)",0.793,7.84,0.78,21.4,0.962,> 10.2
"RPMI-2650 (head and neck, adherent)",0.721,2.88,0.481,1.77,0.971,> 10.2
"C32 (melanoma, adherent)",0.949,> 10.2,0.146,0.143,0.986,> 10.2
"HSC-4 (head and neck, adherent)",0.619,1.52,0.742,12.7,0.979,> 10.2
"HSC-2 (head and neck, adherent)",0.895,> 10.2,0.616,4.05,0.988,> 10.2
"M059J (glioma, adherent)",0.725,2.98,0.685,6.92,0.985,> 10.2
"EBC-1 (lung squamous cell carcinoma, adherent)",0.774,4.56,0.633,4.91,0.979,> 10.2
"HCC-44 (lung adenocarcinoma, adherent)",0.387,0.316,0.594,3.6,0.98,> 10.2
"YAPC (pancreas, adherent)",0.735,3.59,0.845,> 32,0.984,> 10.2
"GP5d (large intestine, adherent)",0.697,2.13,0.385,1,0.965,> 10.2
"NCI-H2085 (lung adenocarcinoma, adherent)",0.661,1.87,0.665,5.99,0.984,> 10.2
"SK-MEL-3 (melanoma, adherent)",0.891,> 10.2,0.648,5.49,0.862,> 10.2
"SN12C (kidney, adherent)",0.964,> 10.2,0.616,4.33,0.977,> 10.2
"HCC38 (breast, adherent)",0.774,4.36,0.745,10.7,0.986,> 10.2
"NCI-H1693 (lung adenocarcinoma, adherent)",0.933,> 10.2,0.869,> 32,0.969,> 10.2

Cell Line,AUC (AT-7519),IC50 (AT-7519) [µM],AUC (FH535),IC50 (FH535) [µM],AUC (XMD14-99),IC50 (XMD14-99) [µM]
"KYSE-220 (oesophagus, adherent)",0.669,1.95,0.779,13.8,0.986,> 10.2
"JHH-1 (liver, adherent)",0.732,3.14,0.568,3.13,0.96,> 10.2
"A673 (rhabdomyosarcoma, adherent)",0.582,1.05,0.545,2.62,0.988,> 10.2
"MHH-ES-1 (Ewing sarcoma, adherent)",0.356,0.257,0.679,6.28,0.872,9.54
"TT (thyroid, adherent)",0.848,> 10.2,0.744,13.4,0.982,> 10.2
"MFE-280 (endometrium, adherent)",0.871,> 10.2,0.526,2.4,0.982,> 10.2
"SNU-387 (liver, adherent)",0.597,1.22,0.702,8.07,0.971,> 10.2
"SJRH30 (rhabdomyosarcoma, adherent)",0.55,0.883,0.525,2.35,0.981,> 10.2
"KMRC-1 (kidney, adherent)",0.982,> 10.2,0.784,14.4,0.987,> 10.2
"CAL-29 (bladder, adherent)",0.877,> 10.2,0.853,28.2,0.984,> 10.2
"OAW-28 (ovary, adherent)",0.84,9.92,0.751,13.1,0.975,> 10.2
"201T (lung adenocarcinoma, adherent)",0.773,5.04,0.554,2.91,0.972,> 10.2
"5637 (bladder, adherent)",0.632,1.42,0.71,7.34,0.982,> 10.2
"IGR-37 (melanoma, adherent)",0.967,> 10.2,0.449,1.47,0.989,> 10.2
"SW837 (large intestine, adherent)",0.79,6.25,0.596,,0.983,> 10.2
"BHY (head and neck, adherent)",0.487,0.59,0.614,4.13,0.987,> 10.2
"CAL-62 (thyroid, adherent)",0.716,2.52,0.533,2.45,0.988,> 10.2
"Hs940-T (melanoma, adherent)",0.86,> 10.2,0.554,2.9,0.983,> 10.2
"SBC-5 (small cell lung carcinoma, adherent)",0.987,> 10.2,0.482,1.8,0.992,> 10.2
"FU-OV-1 (ovary, adherent)",0.736,3.82,0.694,8.4,0.966,> 10.2
"HO-1-N-1 (head and neck, adherent)",0.452,0.478,0.876,27.2,0.989,> 10.2
"LCLC-97TM1 (large cell lung carcinoma, adherent)",0.329,0.204,0.601,3.89,0.926,> 10.2
"NCI-H1792 (lung adenocarcinoma, adherent)",0.754,3.14,0.588,3.39,0.99,> 10.2
"HuH-7 (liver, adherent)",0.933,> 10.2,0.437,1.34,0.987,> 10.2
"NCI-H2023 (lung adenocarcinoma, adherent)",0.945,> 10.2,0.611,4.37,0.98,> 10.2
"WM-115 (melanoma, adherent)",0.641,1.72,0.966,> 32,0.962,> 10.2

Cell Line,AUC (AT-7519),IC50 (AT-7519) [µM],AUC (FH535),IC50 (FH535) [µM],AUC (XMD14-99),IC50 (XMD14-99) [µM]
"H3118 (head and neck, adherent)",0.414,0.365,0.62,4.42,0.982,> 10.2
"PCI-4B (head and neck, adherent)",0.433,0.423,0.663,5.53,0.984,> 10.2
"SNU-398 (liver, adherent)",0.525,0.748,0.448,1.43,0.985,> 10.2
"GAMG (glioma, adherent)",0.606,1.27,0.661,5.74,0.984,> 10.2
"H2373 (mesothelioma, adherent)",0.983,> 10.2,0.827,26.7,0.983,> 10.2
"H2595 (mesothelioma, adherent)",0.781,6.12,0.863,> 32,0.979,> 10.2
"NCI-H727 (lung carcinoid, adherent)",0.772,6.99,0.504,2.06,0.949,> 10.2
"EFO-21 (ovary, adherent)",0.558,0.985,0.722,11.4,0.973,> 10.2
"H2461 (mesothelioma, adherent)",0.882,> 10.2,0.612,4.41,0.983,> 10.2
"NCI-H1755 (lung adenocarcinoma, adherent)",0.875,> 10.2,0.77,14,0.833,8.15
"DMS-273 (small cell lung carcinoma, adherent)",0.978,> 10.2,0.341,0.701,0.978,> 10.2
"HCT-15 (large intestine, adherent)",0.984,> 10.2,0.674,6.33,0.982,> 10.2
"MKN45 (stomach, adherent)",0.678,2.31,0.519,2.29,0.965,> 10.2
"PC-3 (prostate, adherent)",0.684,2.37,0.658,6.08,0.963,> 10.2
"NCI-H2087 (lung adenocarcinoma, semi-adherent)",0.408,0.351,0.496,1.95,0.972,> 10.2
"SNG-M (endometrium, adherent)",0.587,1.1,0.505,2.06,0.943,> 10.2
"U-2-OS (osteosarcoma, adherent)",0.983,> 10.2,0.934,> 32,0.975,> 10.2
"HCC1395 (breast, adherent)",0.922,> 10.2,0.318,0.555,0.983,> 10.2
"HCC1937 (breast, adherent)",0.759,4.08,0.695,7.72,0.985,> 10.2
"SNU-449 (liver, adherent)",0.919,> 10.2,0.641,5.1,0.979,> 10.2
"NCI-H358 (lung adenocarcinoma, adherent)",0.459,0.488,0.678,6.7,0.981,> 10.2
"H2591 (mesothelioma, adherent)",0.875,> 10.2,0.608,4.35,0.982,> 10.2
"J82 (bladder, adherent)",0.919,> 10.2,0.493,1.91,0.988,> 10.2
"NCI-H1944 (lung adenocarcinoma, adherent)",0.512,0.694,0.52,2.28,0.985,> 10.2

# The IC50 comes from the fitted curve, where viability falls to half of the control; fits outside the tested doses are given as limits. For AUC the same curve is integrated over the 256-fold range of doses and scaled to a fraction; it is 1 without any effect and falls as sensitivity rises. The top dose, if marked as inferred, was calculated from the reported fits.
